# Some of the results follow.
# B1: CLEC5A (Homo sapiens), Q9NY25 (protein)
# chain: MNWHMIISGLIVVVLKVVGMTLFLLYFPQIFNKSNDGFTTTRSYGTVSQIFGSSSPSPNGFITTRSYGTVCPKDWEFYQARCFFLSTSESSWNESRDFCKGKGSTLAIVNTPEKLKFLQDITDAEKYFIGLIYHREEKRWRWINNSVFNGNVTNQNQNFNCATIGLTKTFDAASCDISYRRICEKNAK
# Experiments:
# Test in all cases: glycan array binding signal (z-score within array); higher = stronger binding
# Settings in all cases: glycan notation: IUPAC condensed, linker removed
# [1] = biological target: Glc(b1-4)Glc(b1-4)Glc(b1-4)Glc(b1-4)Glc
# In short: (§1)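 Glycan array data came from 3228 arrays in the Consortium for Functional Glycomics database, and only arrays with an available protein sequence were kept. Glycan names were put into IUPAC-condensed notation, and columns mapping to the same glycan were averaged. The binding signal is a within-array Z-score, averaged across arrays of one protein sequence run at different concentrations or buffers and across linkers. A negative Z-score can be read as non-binding.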
# [2] = biological target: Glc(b1-4)Glc(b1-4)Glc(b1-4)Glc(b1-4)Glc(b1-4)Glc
# In short: as §1
# Glc(b1-6)Glc = biological target: Glc(b1-6)Glc
# In short: as §1
# Glc(b1-6)Glc(b1-6)Glc = biological target: Glc(b1-6)Glc(b1-6)Glc
# In short: as §1
# [3] = biological target: Glc(b1-6)Glc(b1-6)Glc(b1-6)Glc
# In short: as §1
# [4] = biological target: Glc(b1-6)Glc(b1-6)Glc(b1-6)Glc(b1-6)Glc
# In short: as §1
# [5] = biological target: Glc(b1-6)Glc(b1-6)Glc(b1-6)Glc(b1-6)Glc(b1-6)Glc
# In short: as §1
# [6] = biological target: Glc(b1-6)Glc(b1-6)Glc(b1-6)Glc(b1-6)Glc(b1-6)Glc(b1-6)Glc
# In short: as §1
# [7] = biological target: Glc(b1-6)Glc(b1-6)Glc(b1-6)Glc(b1-6)Glc(b1-6)Glc(b1-6)Glc(b1-6)Glc
# In short: as §1
# [8] = biological target: Glc(b1-6)Glc(b1-6)Glc(b1-6)Glc(b1-6)Glc(b1-6)Glc(b1-6)Glc(b1-6)Glc(b1-6)Glc
# In short: as §1
# [9] = biological target: Glc(b1-6)Glc(b1-6)Glc(b1-6)Glc(b1-6)Glc(b1-6)Glc(b1-6)Glc(b1-6)Glc(b1-6)Glc(b1-6)Glc
# In short: as §1
# [10] = biological target: Glc(b1-6)Glc(b1-6)Glc(b1-6)Glc(b1-6)Glc(b1-6)Glc(b1-6)Glc(b1-6)Glc(b1-6)Glc(b1-6)Glc(b1-6)Glc
# In short: as §1
# [11] = biological target: Glc(b1-6)Glc(b1-6)Glc(b1-6)Glc(b1-6)Glc(b1-6)Glc(b1-6)Glc(b1-6)Glc(b1-6)Glc(b1-6)Glc(b1-6)Glc(b1-6)Glc
# In short: as §1
# GlcA(b1-3)Gal = biological target: GlcA(b1-3)Gal
# In short: as §1
# GlcA(b1-3)Gal(b1-4)Glc = biological target: GlcA(b1-3)Gal(b1-4)Glc
# In short: as §1
# [12] = biological target: GlcA(b1-3)Gal(b1-4)GlcNAc(b1-3)Gal(b1-4)Glc
# In short: as §1
# [13] = biological target: GlcA(b1-3)Gal(b1-4)GlcNAc(b1-3)Gal(b1-4)GlcNAc(b1-3)Gal(b1-4)Glc
# In short: as §1
# GlcA(b1-3)GlcNAc = biological target: GlcA(b1-3)GlcNAc
# In short: as §1
# [14] = biological target: GlcA(b1-3)GlcNAc(b1-4)GlcA(b1-3)GlcNAc
# In short: as §1
# [15] = biological target: GlcA(b1-3)GlcNAc(b1-4)GlcA(b1-3)GlcNAc(b1-4)GlcA(b1-3)GlcNAc(b1-4)GlcA(b1-3)GlcNAc(b1-4)GlcA(b1-3)GlcNAc(b1-4)GlcA(b1-3)GlcNAc(b1-4)GlcA(b1-3)GlcNAc
# In short: as §1
# GlcA(b1-6)Gal = biological target: GlcA(b1-6)Gal
# In short: as §1
# GlcA3S(b1-3)Gal = biological target: GlcA3S(b1-3)Gal
# In short: as §1
# GlcA3S(b1-3)Gal(b1-4)Glc = biological target: GlcA3S(b1-3)Gal(b1-4)Glc
# In short: as §1
# [16] = biological target: GlcA3S(b1-3)Gal(b1-4)GlcNAc(b1-2)Man
# In short: as §1
# [17] = biological target: GlcA3S(b1-3)Gal(b1-4)GlcNAc(b1-3)Gal(b1-4)Glc
# In short: as §1
# [18] = biological target: GlcA3S(b1-3)Gal(b1-4)GlcNAc(b1-3)Gal(b1-4)GlcNAc(b1-3)Gal(b1-4)Glc
# In short: as §1
# [19] = biological target: GlcNAc(a1-3)Gal(b1-4)GlcNAc
# In short: as §1
# GlcNAc(a1-4)Gal = biological target: GlcNAc(a1-4)Gal
# In short: as §1
# [20] = biological target: GlcNAc(a1-4)Gal(b1-3)GlcNAc
# In short: as §1
# [21] = biological target: GlcNAc(a1-4)Gal(b1-3)[Fuc(a1-2)]Gal
# In short: as §1
# [22] = biological target: GlcNAc(a1-4)Gal(b1-4)GalNAc
# In short: as §1
# [23] = biological target: GlcNAc(a1-4)Gal(b1-4)GlcNAc
# In short: as §1
# [24] = biological target: GlcNAc(a1-4)Gal(b1-4)GlcNAc(b1-3)Gal(b1-4)Glc
# In short: as §1
# [25] = biological target: GlcNAc(a1-4)Gal(b1-4)GlcNAc(b1-3)Gal(b1-4)GlcNAc
# In short: as §1
# [26] = biological target: GlcNAc(a1-4)Gal(b1-4)GlcNAc(b1-3)Gal(b1-4)GlcNAc(b1-3)Gal(b1-4)GlcNAc
# In short: as §1
# [27] = biological target: GlcNAc(a1-4)Gal(b1-4)GlcNAc(b1-3)Gal(b1-4)[Fuc(a1-3)]GlcNAc(b1-3)Gal(b1-4)[Fuc(a1-3)]GlcNAc
# In short: as §1
# [28] = biological target: GlcNAc(a1-6)Gal(b1-4)GlcNAc
# In short: as §1
# GlcNAc(b1-2)Fuc = biological target: GlcNAc(b1-2)Fuc
# In short: as §1
# [29] = biological target: GlcNAc(b1-2)Gal(b1-3)GalNAc
# In short: as §1
# [30] = biological target: GlcNAc(b1-2)Man(a1-3)[GlcNAc(b1-2)Man(a1-6)]Man(b1-4)GlcNAc(b1-4)GlcNAc
# In short: as §1
# [31] = biological target: GlcNAc(b1-2)Man(a1-3)[GlcNAc(b1-2)Man(a1-6)]Man(b1-4)GlcNAc(b1-4)[Fuc(a1-6)]GlcNAc
# In short: as §1
# [32] = biological target: GlcNAc(b1-2)Man(a1-3)[GlcNAc(b1-2)Man(a1-6)][GlcNAc(b1-4)]Man(b1-4)GlcNAc(b1-4)GlcNAc
# In short: as §1
# [33] = biological target: GlcNAc(b1-2)Man(a1-3)[GlcNAc(b1-4)][GlcNAc(b1-2)Man(a1-6)]Man(b1-4)GlcNAc(b1-4)GlcNAc
# In short: as §1
# [34] = biological target: GlcNAc(b1-2)Man(a1-3)[GlcNAc(b1-4)][GlcNAc(b1-2)Man(a1-6)]Man(b1-4)GlcNAc(b1-4)[Fuc(a1-6)]GlcNAc
# In short: as §1
# [35] = biological target: GlcNAc(b1-2)Man(a1-3)[Man(a1-3)[Man(a1-6)]Man(a1-6)][GlcNAc(b1-4)]Man(b1-4)GlcNAc(b1-4)GlcNAc
# In short: as §1
binder,measurement,setting,value
B1,glycan array binding signal (z-score),[1],-0.32
same,glycan array binding signal (z-score),[2],0.74
same,glycan array binding signal (z-score),Glc(b1-6)Glc,0.044
same,glycan array binding signal (z-score),Glc(b1-6)Glc(b1-6)Glc,0.355
same,glycan array binding signal (z-score),[3],1.42
same,glycan array binding signal (z-score),[4],0.644
same,glycan array binding signal (z-score),[5],-0.32
same,glycan array binding signal (z-score),[6],0.548
same,glycan array binding signal (z-score),[7],-0.32
same,glycan array binding signal (z-score),[8],-0.32
same,glycan array binding signal (z-score),[9],1.13
same,glycan array binding signal (z-score),[10],1.61
same,glycan array binding signal (z-score),[11],1.8
same,glycan array binding signal (z-score),GlcA(b1-3)Gal,-0.34
same,glycan array binding signal (z-score),GlcA(b1-3)Gal(b1-4)Glc,-0.32
same,glycan array binding signal (z-score),[12],-0.32
same,glycan array binding signal (z-score),[13],-0.32
same,glycan array binding signal (z-score),GlcA(b1-3)GlcNAc,-0.247
same,glycan array binding signal (z-score),[14],-0.32
same,glycan array binding signal (z-score),[15],-0.32
same,glycan array binding signal (z-score),GlcA(b1-6)Gal,-0.415
same,glycan array binding signal (z-score),GlcA3S(b1-3)Gal,-0.32
same,glycan array binding signal (z-score),GlcA3S(b1-3)Gal(b1-4)Glc,-0.32
same,glycan array binding signal (z-score),[16],-0.221
same,glycan array binding signal (z-score),[17],-0.074
same,glycan array binding signal (z-score),[18],-0.32
same,glycan array binding signal (z-score),[19],-0.053
same,glycan array binding signal (z-score),GlcNAc(a1-4)Gal,0.74
same,glycan array binding signal (z-score),[20],-0.421
same,glycan array binding signal (z-score),[21],-0.32
same,glycan array binding signal (z-score),[22],-0.041
same,glycan array binding signal (z-score),[23],-0.125
same,glycan array binding signal (z-score),[24],0.007
same,glycan array binding signal (z-score),[25],-0.015
same,glycan array binding signal (z-score),[26],-0.06
same,glycan array binding signal (z-score),[27],1.74
same,glycan array binding signal (z-score),[28],0.38
same,glycan array binding signal (z-score),GlcNAc(b1-2)Fuc,-0.32
same,glycan array binding signal (z-score),[29],-0.325
same,glycan array binding signal (z-score),[30],-0.226
same,glycan array binding signal (z-score),[31],0.392
same,glycan array binding signal (z-score),[32],0.355
same,glycan array binding signal (z-score),[33],-0.109
same,glycan array binding signal (z-score),[34],-0.189
same,glycan array binding signal (z-score),[35],-0.32

# From the supplement of paper PMC8728848
